Measurements from PubChem BioAssay AID624170 (National Center for Advancing Translational Sciences (NCATS), 2012).
Among all 410,000 compounds or so, about 850 (0.21%) were called active. The inconclusive results got no clear call from the source; some entries with a clear call stand among them for comparison. Calls follow the shape of the dose curve; as a rule, active = well fitted inhibition curve with a large enough effect; inconclusive = small, poorly fitted or top-dose-only effect, or another doubt; inactive = no such curve, though single readings can be large or run the other way. No potency is given beside an inconclusive call; the fits are too rough.

What follows are compounds tested against Glutaminase kidney isoform, mitochondrial (Homo sapiens) (UniProt O94925) (assay: qHTS for Inhibitors of Glutaminase (GLS)). Settings: GLS enzymatic activity, qHTS titration; series mostly up to 45.5 µM.
How it was run: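 Compounds were pin-transferred onto hKGA, after which L-glutamine (1 mM solution) and a detection mix of glutamate oxidase, HRP and Amplex Red were added. Initial and 30 min RT fluorescence reads were collected.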
Potency is read from the fitted curve at half-maximal effect; tags tell the direction and shape of the fitted curve.

Sequence of UniProt O94925 (O94925 whole entry, looked up, canonical isoform): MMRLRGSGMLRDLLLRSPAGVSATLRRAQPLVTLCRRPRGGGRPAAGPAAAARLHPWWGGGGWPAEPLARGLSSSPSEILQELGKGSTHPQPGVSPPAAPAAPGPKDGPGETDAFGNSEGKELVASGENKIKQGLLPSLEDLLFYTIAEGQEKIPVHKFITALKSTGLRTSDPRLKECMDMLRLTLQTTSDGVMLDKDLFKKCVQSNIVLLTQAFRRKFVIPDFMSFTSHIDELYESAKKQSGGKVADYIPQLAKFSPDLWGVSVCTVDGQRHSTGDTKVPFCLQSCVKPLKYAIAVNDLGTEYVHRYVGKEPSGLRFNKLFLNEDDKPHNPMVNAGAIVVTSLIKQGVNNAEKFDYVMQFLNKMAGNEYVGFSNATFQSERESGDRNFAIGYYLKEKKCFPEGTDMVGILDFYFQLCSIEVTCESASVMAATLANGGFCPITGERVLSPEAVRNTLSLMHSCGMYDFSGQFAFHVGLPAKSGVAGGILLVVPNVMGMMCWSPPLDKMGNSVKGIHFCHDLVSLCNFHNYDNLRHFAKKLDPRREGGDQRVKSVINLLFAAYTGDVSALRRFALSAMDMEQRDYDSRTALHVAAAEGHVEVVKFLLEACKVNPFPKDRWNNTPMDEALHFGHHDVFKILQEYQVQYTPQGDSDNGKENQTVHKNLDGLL

Row | SMILES | Potency
1 | CCNC(=O)CSc1ncnc2sccc12 | inactive
2 | Oc1c(CN2CCCC(C(F)(F)F)C2)cc(Cl)c2ccccc12 (stereo unspecified) | inconclusive [inhibitor, partial curve]
3 | COc1ccc(CC(=O)Nc2ccc(S(=O)(=O)Nc3nccc(C)n3)cc2)cc1 | inconclusive [inhibitor, single point]
4 | Cc1ccc(NNC(=O)c2ccno2)cc1C | inconclusive [inhibitor, partial curve]
5 | COc1ccc(C2=NN(C(=O)c3ccccc3)C(c3ccc(OC)c(OC)c3)C2)cc1OC (stereo unspecified) | inconclusive [inhibitor, single point]
6 | CC(C)NC(=S)NNc1nc2ccccc2s1 | inconclusive [inhibitor, full curve, poor fit]
7 | CCOc1cccc(/C=N/N2C(=O)CSC2=S)c1O | active: 10 µM
8 | CC(=O)Nc1ccc(S(=O)(=O)NN=c2sc3ccccc3n2C)cc1N | inconclusive [inhibitor, partial curve]
9 | O=C(NC1CCCCC1)C1c2ccccc2OCC(=O)N1CCc1c[nH]c2ccccc12 (stereo unspecified) | inactive
10 | Cc1ccc(C(=O)N2CCC(Cc3ccccc3)CC2)cc1S(=O)(=O)N1CCOCC1 | inactive
11 | CCOC(=O)/C(N=Nc1ccc2c(c1)OCO2)=C(\C)O | inconclusive [inhibitor, single point]
12 | CC1(C)CC(=O)C2=C(C1)Nc1cc(Cl)ccc1S2 | inconclusive [inhibitor, single point]
13 | COc1cc(C(=O)NCC2(N3CCCCC3)CCCCC2)ccc1OCC(=O)N1CCOCC1 | inactive
14 | C/C(Cl)=C/Cn1c(SCC(C)C)nc2c1c(=O)[nH]c(=O)n2C | inconclusive [inhibitor, partial curve, poor fit]
15 | Cc1ccc2[nH]cc(S(=O)(=O)c3ccc(F)cc3)c(=O)c2c1 | inconclusive [inhibitor, single point]
16 | Cn1c2ccc(F)cc2c2nnc(NN)nc21 | inconclusive [inhibitor, partial curve, poor fit]
17 | COc1ccc(NC(=O)CN2C(=O)C(c3ccc(C(C)(C)C)cc3)=NC2(C)C)cc1Cl | inactive
18 | O=C(Oc1ccccc1)c1cc(O)c(O)c(O)c1 | inconclusive [inhibitor, partial curve, poor fit]
19 | Fc1cccc(CCN2CCNC[C@@H]2Cc2ccccc2)c1 | inconclusive [inhibitor, single point]
20 | CCc1nnc(NC(=O)c2ccc(S(=O)(=O)N(CC)Cc3ccccc3)cc2)o1 | inconclusive [inhibitor, single point]
21 | Cc1cc(C)nc(SCC(=O)Nc2ccc(Br)cn2)n1 | inactive
22 | C=CCSc1nccc(=O)[nH]1 | inconclusive [inhibitor, partial curve, poor fit]
23 | O=C(COC(=O)c1cccc(Br)c1)NCCNC(=O)COC(=O)c1cccc(Br)c1 | inactive
24 | O=C(CSc1nc(-c2cccc(Cl)c2)nc2cc(=O)[nH]n12)Nc1ccccc1 | inconclusive [inhibitor, single point]

Row | SMILES | Potency
25 | COc1ccc(CNC(=O)CN2CCC(NC(=O)c3cccc(OC)c3)CC2)cc1 | inconclusive [inhibitor, single point]
26 | COc1ccc(OC)c(NC(=O)CSC2=C(C#N)C(c3ccco3)C3=C(CCCC3=O)N2)c1 (stereo unspecified) | inconclusive [inhibitor, single point]
27 | CCN=C1NN=C(c2c[nH]c3ccccc23)CS1 | inconclusive [inhibitor, single point]
28 | CCc1ccc(CN(Cc2ccco2)c2cnc(S(C)(=O)=O)nc2C(=O)Nc2c(C)cccc2C)cc1 | inactive
29 | COc1cccc(CNC(=O)Cc2ccc(NC(=O)N3CCSc4ncccc43)cc2)c1OC | inactive
30 | O=c1cc2c(=O)oc3cc(O)c(O)oc3c2c(O)c1O | inconclusive [inhibitor, full curve]
31 | C/C(=N\O)C(=O)NCCN1CCCCC1 | inconclusive [inhibitor, single point]
32 | COc1ccc(CNC(=O)Cc2cccs2)cc1 | inactive
33 | O=C(C1=C(O)C(=O)N(CCCn2ccnc2)C1c1ccccc1)c1ccco1 (stereo unspecified) | inactive
34 | COc1ccc(N=Cc2sc(O)c3ccccc23)cc1 | inconclusive [inhibitor, single point]
35 | C=CCC1CCCCC12NC(=O)N(c1ccccc1)N2 (stereo unspecified) | inconclusive [inhibitor, single point]
36 | Cc1cc(N2C(=O)Cc3ccccc3C2=O)ccc1C(C)C | inconclusive [inhibitor, partial curve, poor fit]
37 | CC(=O)Sc1nc(-c2ccccc2)[nH]c1S(=O)(=O)c1ccc(C)cc1 | inconclusive [inhibitor, single point]
38 | COc1ccc(CNC2CCCc3ccccc32)c(OC)c1 (stereo unspecified) | inactive
39 | CCOC(=O)c1sc(=S)n(C)c1NC(=O)c1ccccc1Cl | inactive
40 | O=C(/C=C/c1ccccc1)N/C(=C/c1ccccc1)C(=O)Nc1ccc(C(=O)O)cc1 | inconclusive [inhibitor, single point]
41 | CCN(CC)C(=O)c1ccc2c(=O)n(Cc3ccc4c(c3)OCO4)c(=S)[nH]c2c1 | inconclusive [inhibitor, single point]
42 | Cc1ccc(N/C(C(Cl)=C(Cl)Cl)=C(/Cl)[N+](=O)[O-])c(C)c1 | inactive
43 | Cc1cc(C(=O)Nc2ccccc2C(=O)O)ccc1NC(=O)COc1cccc(C)c1C | inconclusive [inhibitor, single point]
44 | Cc1ccc(Oc2nc3ccccc3n3c(C)nnc23)cc1 | inconclusive [inhibitor, single point]
45 | O=C(O)CCCN1C(=O)/C(=C\c2ccco2)SC1=S | inconclusive [inhibitor, single point]
46 | O=C(O)c1ccc(-n2ncc3c2/C(=C/c2cccc([N+](=O)[O-])c2)CC3)cc1 | inactive
47 | CCN(CC)c1ccc(/C=C2\CCC(/C=N/NC(=O)c3ccc(=O)n(C)c3)=C2N2CCOCC2)cc1 | active: 7.08 µM
48 | NC(=NCCCCCCN=C(N)/N=C(\N)Nc1ccc(Cl)cc1)/N=C(\N)Nc1ccc(Cl)cc1 | inconclusive [inhibitor, single point]

Row | SMILES | Potency
49 | COc1ccc(OC)c(N=Nc2c(O)c3ccccc3[nH]c2=O)c1 | inconclusive [inhibitor, single point]
50 | Cc1cccc(N(O)C(=O)Nc2cccc(Cl)c2)c1 | inconclusive [inhibitor, partial curve]
51 | CC(C)(C)C(=O)OCc1nc(-c2ccc(O)c(O)c2)cs1 | inconclusive [inhibitor, full curve, poor fit]
52 | CCOc1ccc(C(=O)Nc2cc(NC(=O)c3ccc(OCC)c(Cl)c3)cc(C(=O)O)c2)cc1Cl | inconclusive [inhibitor, single point]
53 | CCn1c2ccccc2c2cc(CN3CCN(Cc4cc(OC)c(O)c(OC)c4)CC3)ccc21 | inactive
54 | Cc1ccc(S(=O)(=O)CC(=O)N2CCN(c3ccc(F)cc3)CC2)cc1 | inconclusive [inhibitor, single point]
55 | OC(CSc1nnnn1-c1ccccc1)Cn1c2ccccc2c2ccccc21 (stereo unspecified) | inactive
56 | CN(C)C(=O)CNc1ccn2nc(-c3cccc(OCCN4CCOCC4)c3)cc2n1 | inactive
57 | COc1cccc(C(=O)NC2CC3CCCC(C2)N3CC(=O)Nc2ccccc2)c1 (stereo unspecified) | active: 6.31 µM
58 | CCOC(=O)N1CCN(C(=O)C2CCN(C(=O)c3ccccc3C)CC2)CC1 | inconclusive [inhibitor, partial curve, poor fit]
59 | O=C(CCCCCn1c(=O)[nH]c2ccccc2c1=O)NCc1cccc(Cl)c1 | inconclusive [inhibitor, partial curve, poor fit]
60 | CC(=O)Nc1ccc(NC(=O)CSC2=NS(=O)(=O)c3cc(F)ccc3N2)cc1 | inactive
61 | O=C(CSc1ccc(-c2ccccn2)nn1)N1CCCCC1 | inconclusive [inhibitor, single point]
62 | O=C(Nc1cc(Sc2ccccn2)cc([N+](=O)[O-])c1)c1ccc([N+](=O)[O-])cc1 | inconclusive [inhibitor, partial curve, poor fit]
63 | CCn1c(=O)cc(OCC(=O)O)c2ccccc21 | inactive
64 | CCNc1nc(NCC)nc(N/N=C/c2ccc(O)c(O)c2)n1 | inconclusive [inhibitor, single point]
65 | Cn1nnnc1SCC(=O)c1cccs1 | inactive
66 | Cc1nc(C(Cl)(Cl)Cl)nc2[nH]ccc(=O)c12 | inconclusive [inhibitor, single point]
67 | CC(=O)NC(c1ccc(Cl)cc1)c1ccc2cccnc2c1O (stereo unspecified) | inactive
68 | CCC(C)n1ncn(-c2ccc(N3CCN(c4ccc(O)cc4)CC3)cc2)c1=O (stereo unspecified) | inconclusive [inhibitor, single point]
69 | Cc1ccc(C)c(NC(=O)CSc2cn(CC(=O)N3CCCC3)c3ccccc23)c1 | inactive
70 | CO/N=C(/C(=O)N[C@@H]1C(=O)N2C(C(=O)O)=CCS[C@H]12)c1csc(N)n1 | inconclusive [inhibitor, partial curve]
71 | COc1ccccc1N1CCN(CCCCN2C(=O)C3CCCCN3C2=O)CC1 (stereo unspecified) | inconclusive [inhibitor, single point]
